# In all, about 81,000 sequences were measured (“one-hybrid fitness for binding NBS DNA”: median about -0.1, highest 2% from about 0.36 on). The list shows a part of the results.
# B1: Caulobacter ParB omega fusion; a variant is named by its letters at X, in order, B8GW30 (parent)
# chain: MESVVVGEPGMSEGRRGLGRGLSALLGEVDAAPAQAPGEQLGGSREAPIEILQRNPDQPRRTFREEDLEDLSNSIREKGVLQPILVRPSPDTAGEYQIVAGERAWRAAQRAGLKTVPIMVRELDDLAVLEIGIIENVQRADLNVLEEALSYKVLMEKFERTQENIAQTIGKSXSHVANXMRLLXLPDEVQSYLVSGELTAXHARAIAAAADPVALAKQIIEGGLSVRETEALARKAPNLSAGKSKGGRPPRVKDTDTQALESDLSSVLGLDVSIDHRGSTGTLTITYATLEQLDDLCNRLTRGI
# Variants of: B1
# Assay: one-hybrid fitness for binding NBS DNA (the Noc-binding site; scaled: cognate 1, non-cognate 0); higher = stronger binding
# Details: with NBS DNA site
# How it was run: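 Values were rescaled so that cognate is 1 and non-cognate is 0. Each is a fitness, the log change in a variant's read ratio to wild type from Illumina reads of plasmids before and after selection, with three replicate libraries pooled and variants under 10 reads dropped. Selection of the Caulobacter ParB libraries, four specificity codons randomised, used E. coli USO with a HIS3 reporter, site 19 bp from the promoter, on M9-minus-histidine with 0.1 mM IPTG and 5 mM 3-AT for 48 hours at 37°C.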
row,Variant,one-hybrid fitness for binding NBS DNA
1,FLEG,≤ 0.2
2,PKHG,≤ 0.2
3,IALM,≤ 0.2
4,TRAT,0.315
5,VYYT,≤ 0.2
6,WPAS,≤ 0.2
7,HWAC,≤ 0.2
8,ALQT,≤ 0.2
9,YALS,≤ 0.2
10,HYQT,≤ 0.2
11,LGHF,≤ 0.2
12,TGNC,≤ 0.2
13,YPQC,≤ 0.2
14,SQGR,≤ 0.2
15,DLQT,≤ 0.2
16,DHAL,≤ 0.2
17,ELWS,≤ 0.2
18,MVEM,≤ 0.2
19,SQII,≤ 0.2
20,VYQT,≤ 0.2
21,MTVQ,≤ 0.2
22,AMVG,≤ 0.2
23,RQLE,≤ 0.2
24,SKTS,≤ 0.2
25,HPPS,≤ 0.2
26,HEPC,≤ 0.2

row,Variant,one-hybrid fitness for binding NBS DNA
1,MAKP,≤ 0.2
2,VPQG,≤ 0.2
3,SLLL,≤ 0.2
4,QLQG,≤ 0.2
5,HHKS,≤ 0.2
6,TRVP,≤ 0.2
7,LWQC,≤ 0.2
8,IFLG,≤ 0.2
9,LWLC,≤ 0.2
10,RGVF,≤ 0.2
11,FGDF,≤ 0.2
12,MRHS,≤ 0.2
13,YRAS,≤ 0.2
14,NRRC,≤ 0.2
15,HMFR,≤ 0.2
16,PFPP,≤ 0.2
17,INQG,≤ 0.2
18,NHEV,≤ 0.2
19,TEGL,≤ 0.2
20,IKTI,≤ 0.2
21,STCS,≤ 0.2
22,TGGS,≤ 0.2
23,KIVR,≤ 0.2
24,DHFR,≤ 0.2
25,SWTA,≤ 0.2
26,DIKS,≤ 0.2

row,Variant,one-hybrid fitness for binding NBS DNA
1,CCNA,≤ 0.2
2,STAP,≤ 0.2
3,EYPC,≤ 0.2
4,TYPP,≤ 0.2
5,IIAG,≤ 0.2
6,TIMS,≤ 0.2
7,ADCQ,≤ 0.2
8,RSRV,≤ 0.2
9,QCIY,≤ 0.2
10,GSKI,≤ 0.2
11,HMHD,≤ 0.2
12,HIID,≤ 0.2
13,EGGI,≤ 0.2
14,CFMK,≤ 0.2
15,GNKA,≤ 0.2
16,MSFT,≤ 0.2
17,VKCI,≤ 0.2
18,WANS,≤ 0.2
19,HFEE,≤ 0.2
20,QTVF,≤ 0.2
21,SRLT,≤ 0.2
22,KLLV,≤ 0.2
23,QLHG,≤ 0.2
24,PQHY,≤ 0.2
25,AKPI,≤ 0.2
26,PLRV,≤ 0.2

row,Variant,one-hybrid fitness for binding NBS DNA
1,DGKR,≤ 0.2
2,NFQE,≤ 0.2
3,YLQP,≤ 0.2
4,RWVR,0.259
5,RARG,≤ 0.2
6,DTHI,≤ 0.2
7,WRDY,≤ 0.2
8,RKSF,≤ 0.2
9,TLIS,≤ 0.2
10,RMIQ,≤ 0.2
11,RFNR,0.325
12,RTVA,≤ 0.2
13,PHHV,≤ 0.2
14,PEPI,≤ 0.2
15,GRMW,≤ 0.2
16,QSEH,≤ 0.2
17,FKAG,≤ 0.2
18,DKVR,≤ 0.2
19,APGC,≤ 0.2
20,EFLK,≤ 0.2
21,SCPD,≤ 0.2
22,DVHR,≤ 0.2
23,IRAM,≤ 0.2
24,LYHS,≤ 0.2
25,YGFF,≤ 0.2
26,YIMR,≤ 0.2

row,Variant,one-hybrid fitness for binding NBS DNA
1,CSQA,≤ 0.2
2,HYWM,≤ 0.2
3,SSNW,≤ 0.2
4,HQGP,≤ 0.2
5,IDHT,≤ 0.2
6,LAGS,≤ 0.2
7,VDRK,≤ 0.2
8,GCQC,≤ 0.2
9,PMYT,≤ 0.2
10,GRTG,≤ 0.2
11,PYLV,≤ 0.2
12,QNNK,≤ 0.2
13,KAVF,≤ 0.2
14,TKVM,≤ 0.2
15,RNFM,≤ 0.2
16,HRWA,≤ 0.2
17,NTAK,≤ 0.2
18,PANE,≤ 0.2
19,RDVS,≤ 0.2
20,QMMG,≤ 0.2
21,WKVG,≤ 0.2
22,HDQW,≤ 0.2
23,PKTR,≤ 0.2
24,AWLI,≤ 0.2
25,NAKT,≤ 0.2
26,GRLA,≤ 0.2

row,Variant,one-hybrid fitness for binding NBS DNA
1,THLL,≤ 0.2
2,AQFF,≤ 0.2
3,SAIL,≤ 0.2
4,MCRW,≤ 0.2
5,TVNH,≤ 0.2
6,RMWA,≤ 0.2
7,QANN,≤ 0.2
8,WSRS,≤ 0.2
9,NMHK,≤ 0.2
10,SLHR,≤ 0.2
11,KAPY,≤ 0.2
12,FHIR,≤ 0.2
13,FDQL,≤ 0.2
14,SIMV,≤ 0.2
15,MRLQ,≤ 0.2
16,PNAM,≤ 0.2
17,NKAS,≤ 0.2
18,RYIN,≤ 0.2
19,KTNR,0.295
20,QLTD,≤ 0.2
21,SSIQ,≤ 0.2
22,KQQW,≤ 0.2
23,MMQL,≤ 0.2
